Inconclusive means that the source gave no clear call. Such entries were picked first, then a sample of the others. For some of these results: Where the call is inconclusive, the potency comes from a doubtful curve fit. Activity calls are given as the source filed them. Unless noted, calls come from the whole dose curve; as a rule, active = well fitted curve in the direction sought with a large enough effect; inconclusive = small, poorly fitted or top-dose-only effect, or another doubt; inactive = no such curve, though single readings can be large; an effect the other way counts as inactive or inconclusive.
How the values were obtained:
[1] = qHTS of pediatric cancer cell lines to identify multiple opportunities for drug repurposing: Primary screen for DAOY cells (AID 1347090); conditions: DAOY medulloblastoma viability, CellTiter-Glo luminescence, 48 h; activity change, negative = cytotoxic: at 46 µM (top of the series); note: nearly all actives have a fitted effect of over 55% in size
Outline: (§1)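 Viability measured as metabolically active cells via CellTiter-Glo luminescence following 48 hours of compound exposure, 11-point dilutions in confirmatory testing. 500-1,000 cells/well plated 5 hours before dosing; controls were DMSO and 2.3 µM bortezomib.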

[2] = qHTS of pediatric cancer cell lines to identify multiple opportunities for drug repurposing: Primary screen for SK-N-SH cells (AID 1347098); conditions: SK-N-SH viability, CellTiter-Glo luminescence, 48 h; activity change, negative = cytotoxic: at 57 µM (top of the series); note: nearly all actives have a fitted effect of over 65% in size;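 for activity change, negative = cytotoxic: DMSO served as neutral control and bortezomib at 2.3 µM as positive control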
Outline: (§2)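 Cells (500-1,000/well) rested 5 h, then received compounds for 48 h; metabolically active cells were measured by CellTiter-Glo luminescence. Final concentrations spanned up to 46 µM (MIPE, 11-point) or 0.59 nM-46 µM (NPC, 8-point) in primary screens, 11-point in follow-ups.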

[3] = qHTS of pediatric cancer cell lines to identify multiple opportunities for drug repurposing: Primary screen for OHS-50 cells (AID 1347103); note: nearly all actives have a fitted effect of over 40% in size
Outline: as §2

[4] = biological target: Cytochrome P450 2D6 (Homo sapiens) (UniProt P10635); assay: Cytochrome P450 family 2 subfamily D member 6 (CYP2D6) small molecule antagonists: luciferase biochemical (cell-free) qHTS assay (AID 1645840; active = well fitted curve in the direction sought with a large enough effect in the repeat runs; inconclusive = weak or mixed curves; inactive = no such curve, though single readings can be large; an effect the other way counts as inactive or inconclusive; note: nearly all actives have a fitted effect of over 55% in size)
Outline: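 P450-Glo CYP2D6 system: proluciferin substrate converted by enzyme to luciferin, read by luminescence proportional to activity. Enzyme-substrate mix with compound 10 min at room temperature, then NADPH regeneration 1 h before detection reagent.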

WaGa = assay: qHTS assay to identify novel small-molecules to repurpose for Merkel cell carcinoma treatment (AID 1296009); conditions: MCC and control cell lines, CellTiter-Glo viability, 72 h; series mostly up to 46 µM; note: nearly all actives have a fitted effect of over 60% in size
Outline: (§3)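 CellTiter-Glo luminescence after 72 hr compound exposure at 37 degree celsius gave cell viability. Libraries NPC and MIPE were run as 8- and 11-point dose responses; RLUs normalized to DMSO (negative) and no-cell (cytotoxicity) controls.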

[5] = qHTS of pediatric cancer cell lines to identify multiple opportunities for drug repurposing: Primary screen for SJ-GBM2 cells (AID 1347091)
Outline: as §1

[6] = qHTS of pediatric cancer cell lines to identify multiple opportunities for drug repurposing: Primary screen for U-2 OS cells (AID 1347096); note: nearly all actives have a fitted effect of over 50% in size
Outline: (§4)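 Viability after 48 h compound treatment at 37C, 500-1,000 cells/well, read as ATP luminescence with CellTiter-Glo. Primary screens used 11-point (MIPE, 0.78 nM-46 µM) or 8-point (NPC, 0.59 nM-46 µM) final concentrations; follow-up screens used 11-point dilutions.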

[7] = qHTS of pediatric cancer cell lines to identify multiple opportunities for drug repurposing: Primary screen for LAN-5 cells (AID 1347100)
Outline: as §4

[8] = qHTS of pediatric cancer cell lines to identify multiple opportunities for drug repurposing: Primary screen for BT-12 cells (AID 1347101); note: nearly all actives have a fitted effect of over 25% in size
Outline: as §2

[9] = qHTS of pediatric cancer cell lines to identify multiple opportunities for drug repurposing: Primary screen for Rh18 cells (AID 1347102); note: nearly all actives have a fitted effect of over 65% in size
Outline: as §4

[10] = qHTS of pediatric cancer cell lines to identify multiple opportunities for drug repurposing: Primary screen for Rh30 cells (AID 1347107); note: nearly all actives have a fitted effect of over 75% in size
Outline: as §4

[11] = qHTS of pediatric cancer cell lines to identify multiple opportunities for drug repurposing: Primary screen for Rh41 cells (AID 1347108); note: nearly all actives have a fitted effect of over 70% in size;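 for activity change, negative = cytotoxic: luminescence drop marks cytotoxic hits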
Outline: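 Viability was measured as metabolically active cells after 48 hours of treatment, read by CellTiter-Glo luminescence. Compounds were tested at multiple final concentrations, giving concentration-response curves.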

UISO = assay: qHTS assay to identify novel small-molecules to repurpose for Merkel cell carcinoma treatment (AID 1296009); conditions: MCC and control cell lines, CellTiter-Glo viability, 72 h; series mostly up to 46 µM; note: nearly all actives have a fitted effect of over 60% in size
Outline: as §3

[12] = biological target: Cytochrome P450 2C9 (Homo sapiens) (UniProt P11712); assay: Cytochrome P450 family 2 subfamily C member 9 (CYP2C9) small molecule antagonists: luciferase biochemical (cell-free) qHTS assay (AID 1645842; active = well fitted curve in the direction sought with a large enough effect in the repeat runs; inconclusive = weak or mixed curves; inactive = no such curve, though single readings can be large; an effect the other way counts as inactive or inconclusive; note: nearly all actives have a fitted effect of over 55% in size)
Outline: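 P450-Glo CYP2C9 system: proluciferin substrate with enzyme in mix containing 0.4% BSA, 10 min at room temperature, then NADPH regeneration solution added and incubated 1 h at 37C. Detection reagent stopped reaction; luminescence read after 20 min as RLU.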

[13] = qHTS to identify inhibitors of the type 1 interferon - major histocompatibility complex class I in skeletal muscle: primary screen against the NCATS Mechanism Interrogation Plate v5.0 (MIPE) Libary (AID 1347411); conditions: iHSKM cells + IFN-b, HiBiT-tagged MHC-I luminescence, 24 h; series mostly up to 45.8 µM; note: nearly all actives have a fitted effect of over 65% in size
Outline: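 IFN-beta-driven (4 ng/ml) HLA-B-HiBit expression in CRISPR-tagged C25cl48 myoblasts; compounds 11-pt, 1:3, max 46 uM, 24 hr exposure; lytic NanoLuc complementation luminescence.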

[14] = tested on: Zika virus NS2B-NS3 protease (unlinked complex); assay: Primary screen GU Rhodamine qHTS for Zika virus inhibitors: Unlinked NS2B-NS3 protease assay (AID 1347159); note: nearly all actives have a fitted effect of over 60% in size
Outline: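 In dose–response format, inhibition of unlinked protease (25 nM) was measured with 1.5 microM bis-peptide Rhodamine110 substrate. Aprotinin served as the intraplate control.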

[15] = Primary fluorescence-based thiol-reactive (MSTI) qHTS assay for identification of artifact compounds. (AID 1845221);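 note: thiol-reactive compounds lower the probe fluorescence signal; nearly all actives have a fitted effect of over 65% in size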
Outline: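 Thiol-reactive compounds detected by quenching of 4 uM MSTI fluorescence (525/598 nm) after 1 h room-temperature dark incubation in PBS pH 7.4, 2% DMSO. qHTS titration; percent inhibition Hill-fitted against Acetyl-MSTI/MSTI controls.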

[16] = Primary redox qHTS assay for identification of artifact compounds. (AID 1845223)
Outline: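 Redox-cycling detection via DTT (250 uM final) oxidation coupled to Amplex Red (25 uM)/HRP (250 mU/mL) in HBSS. 15 min preincubation plus 30 min after DTT, room temperature. Ex/Em 525/598 nm; 4-parameter Hill fit against DMSO and 10 uM DA3003.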

[17] = biological target: Phospholipid hydroperoxide glutathione peroxidase GPX4 (Homo sapiens) (UniProt P36969); assay: Primary qHTS Assay for Inhibitors of Recombinant Selenoprotein Glutathione Peroxidase 4 (GPX4) (AID 1845192); note: nearly all actives have a fitted effect of over 65% in size
Outline: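 Steps: GPX4 plus compound, 30 min RT; add GR/GSH/NADPH master mix; start with cumene hydroperoxide; read 340/450 nm fluorescence at 0 and 15 min. Finals were 200 nM GPX4, 1 mM GSH, 0.5 mM CHP, 0.5 mM NADPH, 100 nM GR.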

[18] = biological target: Glutathione peroxidase 1 (Homo sapiens) (UniProt P07203); assay: Primary qHTS Assay for Inhibitors of Recombinant Selenoprotein Glutathione Peroxidase 1 (GPX1) (AID 1845191); conditions: activity, negative = inhibition: at 48.8 µM (top of the series); note: nearly all actives have a fitted effect of over 65% in size
Outline: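 GR-coupled readout: NADPH consumption tracked by fluorescence, ex 340/em 450 nm, at t=0 and after 15 min at RT. Final mix 10 nM GPX1, 1 mM GSH, 0.5 mM CHP, 0.5 mM NADPH, 100 nM GR, 0.01% BSA, following 30 min enzyme–compound preincubation.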
Potency is the fitted concentration of half-maximal effect; tags give direction and shape of the fitted curve.

Sequence of UniProt P11712 (P11712 whole entry, looked up): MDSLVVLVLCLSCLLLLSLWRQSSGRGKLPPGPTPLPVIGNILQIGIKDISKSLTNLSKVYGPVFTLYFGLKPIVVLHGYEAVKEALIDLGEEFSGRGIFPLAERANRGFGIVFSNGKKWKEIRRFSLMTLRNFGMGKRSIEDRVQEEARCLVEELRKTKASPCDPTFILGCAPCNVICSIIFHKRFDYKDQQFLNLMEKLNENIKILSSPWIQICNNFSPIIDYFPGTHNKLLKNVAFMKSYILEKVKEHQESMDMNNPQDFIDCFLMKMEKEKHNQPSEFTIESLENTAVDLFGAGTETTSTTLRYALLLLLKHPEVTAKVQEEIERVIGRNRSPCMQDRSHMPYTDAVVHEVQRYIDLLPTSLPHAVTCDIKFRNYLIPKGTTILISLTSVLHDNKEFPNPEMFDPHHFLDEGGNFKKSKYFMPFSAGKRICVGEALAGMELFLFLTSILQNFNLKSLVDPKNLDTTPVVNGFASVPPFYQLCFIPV
Sequence of UniProt P10635 (P10635 whole entry, looked up): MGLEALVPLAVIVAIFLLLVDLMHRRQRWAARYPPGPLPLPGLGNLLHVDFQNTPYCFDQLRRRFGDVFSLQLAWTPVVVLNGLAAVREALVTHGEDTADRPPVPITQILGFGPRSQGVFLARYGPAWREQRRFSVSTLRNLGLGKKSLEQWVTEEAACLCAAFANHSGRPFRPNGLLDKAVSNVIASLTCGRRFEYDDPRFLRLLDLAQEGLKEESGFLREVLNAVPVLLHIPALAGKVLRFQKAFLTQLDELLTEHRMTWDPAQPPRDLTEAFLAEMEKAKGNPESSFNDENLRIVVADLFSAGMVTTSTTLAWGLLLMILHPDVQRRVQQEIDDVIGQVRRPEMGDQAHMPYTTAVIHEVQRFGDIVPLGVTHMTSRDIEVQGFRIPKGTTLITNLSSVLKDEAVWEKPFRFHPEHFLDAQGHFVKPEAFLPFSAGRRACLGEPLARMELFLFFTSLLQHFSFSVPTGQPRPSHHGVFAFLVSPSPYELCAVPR
Sequence of UniProt P36969 (P36969 whole entry, looked up): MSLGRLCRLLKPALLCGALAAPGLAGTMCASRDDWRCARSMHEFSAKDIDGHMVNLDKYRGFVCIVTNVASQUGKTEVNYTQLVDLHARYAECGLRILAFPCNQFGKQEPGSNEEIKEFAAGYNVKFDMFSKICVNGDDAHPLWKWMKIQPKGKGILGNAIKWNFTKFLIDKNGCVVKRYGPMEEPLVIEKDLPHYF
Sequence of UniProt P07203 (P07203 whole entry, looked up): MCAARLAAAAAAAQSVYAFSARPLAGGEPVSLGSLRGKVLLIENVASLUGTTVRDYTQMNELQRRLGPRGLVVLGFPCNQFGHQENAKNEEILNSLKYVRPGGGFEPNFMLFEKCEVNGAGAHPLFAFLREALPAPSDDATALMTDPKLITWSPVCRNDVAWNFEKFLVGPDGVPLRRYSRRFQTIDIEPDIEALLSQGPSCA

Q: What does the source list for `CC(=O)c1ccc2c(c1)N(CCCN(C)C)c1ccccc1S2`?
A: Potency [1]: inactive; Potency [2]: inconclusive: 30.7 µM [cytotoxic, single point]; Potency [3]: inconclusive: 30.9 µM [cytotoxic, partial curve]; Potency [4]: active: 0.436 µM; Potency (WaGa): active: 26.6 µM

Q: For `Cc1ccc2c(Br)cc(Br)c(O)c2n1`, which Potency [1] is on record?
A: active: 8.41 µM

Q: What about the Potency [5] of the same compound?
A: active: 13.3 µM

Q: What about the Potency [6] of the same compound?
A: inconclusive: 6.68 µM [cytotoxic, partial curve, poor fit]

Q: And the Potency [2]?
A: inconclusive: 13.7 µM [cytotoxic, partial curve]

Q: What about the Potency [7] of the same compound?
A: active: 11.9 µM

Q: What about the Potency [8] of the same compound?
A: inconclusive: 7.77 µM [cytotoxic, partial curve]

Q: And the Potency [9]?
A: inconclusive: 13.3 µM [cytotoxic, partial curve]

Q: What about the Potency [3] of the same compound?
A: active: 11 µM

Q: And the Potency [10]?
A: inconclusive: 11.9 µM [cytotoxic, partial curve]

Q: What about the Potency [11] of the same compound?
A: inconclusive: 16.8 µM [cytotoxic, partial curve]

Q: And the Potency (UISO)?
A: inconclusive: 10.6 µM [inhibitor, partial curve]

Q: And the Potency (WaGa)?
A: active: 9.44 µM

Q: For `C[C@]12CCC(=O)C=C1C=C[C@@H]1[C@@H]2CC[C@@]2(C)[C@H]1CC[C@@]21CCC(=O)O1`, which Potency [1] is on record?
A: inconclusive: 13.3 µM [cytotoxic, partial curve]

Q: And the Potency [6]?
A: inactive

Q: What about the Potency [2] of the same compound?
A: inactive

Q: What about the Potency [7] of the same compound?
A: inconclusive: 33.5 µM [cytotoxic, single point]

Q: And the Potency [8]?
A: inconclusive: 30.9 µM [cytotoxic, single point]

Q: What about the Potency [3] of the same compound?
A: active: 15.5 µM

Q: And the Potency [10]?
A: inconclusive: 29.9 µM [cytotoxic, partial curve, poor fit]

Q: What about the Potency [11] of the same compound?
A: inconclusive: 18.8 µM [cytotoxic, partial curve, poor fit]

Q: What about the Potency [12] of the same compound?
A: inconclusive: 27.5 µM [inhibitor, single point]

Q: And the Potency (UISO)?
A: inconclusive: 15 µM [inhibitor, partial curve, poor fit]

Q: What about the Potency (WaGa) of the same compound?
A: inconclusive: 33.5 µM [inhibitor, single point]

Q: Which Potency [13] does the source give for `Cn1cc(-c2cnn3c(N)c(Br)c([C@@H]4CCCNC4)nc23)cn1` here?
A: inconclusive: 11.7 µM [inhibitor, partial curve]

Q: And the Potency [12]?
A: inconclusive: 1.51 µM [inhibitor, single point]

Q: For `COc1cc2ncnc(Nc3cccc(I)c3)c2cc1OC`, which Potency [14] is on record?
A: inconclusive: 89.1 µM [inhibitor, single point]

Q: With `COc1cc(N2CCC(N3CCN(C)CC3)CC2)ccc1Nc1ncc(Cl)c(-c2c[nH]c3ccccc23)n1` as the compound, how does the Potency [4] read?
A: inconclusive: 30.1 µM [inhibitor, single point]

Q: And the Potency [15]?
A: active: 1.68 µM

Q: And the Potency [16]?
A: inconclusive: 8.44 µM [activator, partial curve, poor fit]

Q: With `COc1cc(C(=O)NC2CCN(C)CC2)c(F)cc1Nc1ncc2c(n1)N(C1CCCC1)CC(F)(F)C(=O)N2C` as the compound, how does the Potency [13] read?
A: active: 14.7 µM

Q: And the Potency [12]?
A: active: 5.35 µM

Q: And the Potency [17]?
A: inactive

Q: And the Potency [16]?
A: inconclusive: 3.36 µM [activator, full curve, poor fit]

Q: Which Potency [1] does the source give for `CC(=O)Nc1ccn(C2COC(COC(=O)c3ccccc3)O2)c(=O)n1` (stereo not drawn) here?
A: inactive

Q: What about the Potency [2] of the same compound?
A: inconclusive: 4.86 µM [cytotoxic, full curve, poor fit]

Q: And the Potency [7]?
A: inconclusive: 1.88 µM [cytotoxic, full curve]

Q: And the Potency [8]?
A: inconclusive: 17.4 µM [cytotoxic, partial curve, poor fit]

Q: And the Potency [3]?
A: inconclusive: 9.78 µM [cytotoxic, partial curve]

Q: And the Potency [11]?
A: inactive

Q: And the Potency [4]?
A: inactive

Q: What about the Potency (UISO) of the same compound?
A: inconclusive: 1.68 µM [inhibitor, full curve]

Q: What about the Potency (WaGa) of the same compound?
A: inconclusive: 23.7 µM [inhibitor, single point]

Q: For `COc1ccc(-c2ccc3c(N4CCOCC4)nc(N4CC(C)OC(C)C4)nc3n2)cc1CO` (stereo not drawn), which Potency [18] is on record?
A: active: 18 µM

Q: What about the Potency [17] of the same compound?
A: active: 22.7 µM

Q: Which Potency [5] does the source give for `OCc1c[nH]c2ccccc12` here?
A: inconclusive: 48.6 µM [cytotoxic, single point]

Q: What about the Potency [6] of the same compound?
A: inconclusive: 30.6 µM [cytotoxic, partial curve, poor fit]

Q: And the Potency [2]?
A: inconclusive: 17.7 µM [cytotoxic, partial curve]

Q: And the Potency [7]?
A: inconclusive: 68.6 µM [cytotoxic, single point]

Q: And the Potency [8]?
A: inconclusive: 25.2 µM [cytotoxic, partial curve, poor fit]

Q: And the Potency [11]?
A: inconclusive: 27.3 µM [cytotoxic, partial curve, poor fit]

Q: And the Potency (UISO)?
A: active: 10.9 µM

Q: What about the Potency (WaGa) of the same compound?
A: inconclusive: 34.4 µM [inhibitor, single point]

Q: Which Potency [14] does the source give for `O=C(Nc1cccc2cccnc12)c1ccc(N2C(=O)[C@@H]3C4C=CC(C4)[C@@H]3C2=O)cc1` here?
A: inconclusive: 100 µM [inhibitor, single point]
